# The campaign covered roughly 310,000 compounds. About 2,200 (0.71%) showed an effect of 50% or more. The effect is printed as a negative number. This is one part of the list. Where a SMILES comes first, the peptide text is derived from it. The star is where a group is joined. Boc = CC(C)(C)OC(=O)*
# Molecular target: human ether-à-go-go-related gene (hERG) potassium channel (human, UniProt Q12809)
# Assay: primary screen, population patch clamp on CHO cells stably expressing hERG
# human ether-à-go-go-related gene (hERG) potassium channel, sequence (Q12809 whole entry, looked up): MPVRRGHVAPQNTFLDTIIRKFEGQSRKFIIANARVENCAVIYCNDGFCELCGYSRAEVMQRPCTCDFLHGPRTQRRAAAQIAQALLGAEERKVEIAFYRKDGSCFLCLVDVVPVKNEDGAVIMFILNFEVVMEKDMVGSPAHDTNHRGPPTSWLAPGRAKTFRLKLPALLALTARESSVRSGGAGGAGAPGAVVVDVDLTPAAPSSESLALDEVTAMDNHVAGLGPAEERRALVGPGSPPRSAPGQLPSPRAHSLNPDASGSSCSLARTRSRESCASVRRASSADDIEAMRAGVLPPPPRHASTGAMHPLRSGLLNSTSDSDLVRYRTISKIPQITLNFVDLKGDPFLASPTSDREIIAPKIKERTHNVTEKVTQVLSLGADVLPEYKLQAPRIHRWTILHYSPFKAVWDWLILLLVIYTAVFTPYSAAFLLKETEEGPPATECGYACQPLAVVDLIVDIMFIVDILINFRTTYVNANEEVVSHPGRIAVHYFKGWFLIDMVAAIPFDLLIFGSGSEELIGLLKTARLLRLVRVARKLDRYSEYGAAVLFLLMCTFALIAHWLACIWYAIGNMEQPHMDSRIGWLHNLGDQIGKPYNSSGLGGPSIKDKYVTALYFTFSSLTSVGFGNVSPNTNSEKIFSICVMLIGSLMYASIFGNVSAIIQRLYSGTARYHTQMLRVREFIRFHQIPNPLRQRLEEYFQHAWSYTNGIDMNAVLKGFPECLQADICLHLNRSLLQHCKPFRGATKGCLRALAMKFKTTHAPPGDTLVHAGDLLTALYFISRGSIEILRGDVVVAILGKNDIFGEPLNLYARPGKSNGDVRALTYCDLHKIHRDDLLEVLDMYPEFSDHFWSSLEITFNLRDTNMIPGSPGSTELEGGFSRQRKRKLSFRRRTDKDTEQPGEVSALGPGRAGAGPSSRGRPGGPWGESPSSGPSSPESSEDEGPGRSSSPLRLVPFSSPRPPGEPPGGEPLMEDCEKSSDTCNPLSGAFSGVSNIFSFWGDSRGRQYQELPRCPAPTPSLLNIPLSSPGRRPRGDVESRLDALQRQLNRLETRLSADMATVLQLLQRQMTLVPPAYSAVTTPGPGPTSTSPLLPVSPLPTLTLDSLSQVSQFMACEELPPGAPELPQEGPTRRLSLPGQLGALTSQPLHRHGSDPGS
row,Structure (SMILES),"hERG current change (%, negative = inhibition) at 1uM [%]"
1,Oc1cccc(/C=C/c2ccc3cccc(O)c3n2)c1,16.3
2,FC(F)(F)c1ccc(C2[C@H]3CN(CC4CCCCC4)[C@H](c4ccccc4)C34CC2(c2cccnc2)C4)cc1 (stereo partly shown),11.3
3,CCC(C)C(NC(=O)OC(C)(C)C)C(=O)NC(C(=O)NC(C)C(N)=O)C(C)C (stereo not drawn) (Boc-Ile-Val-Ala-NH2; configuration not given here),7.78
4,COC(=O)C1=C(C)N(C)C(=S)N(C)C1c1cccc(Br)c1 (stereo not shown),-8.59
5,CCCNc1nc2c(c(=O)n(C)c(=O)n2C)n1Cc1ccc(F)cc1,6.22
6,Cc1ncoc1C(=O)Nc1cccc(Cl)c1,1.6
7,CC(C)c1ccc(OCC(O)CNC(C)c2ccccc2)cc1.Cl (stereo not shown),-0.387
8,O=C(COC(=O)CNC(=O)c1ccccc1F)NCC(F)(F)F,6.66
9,N#CC1=C(N)Oc2n[nH]c(-c3cccs3)c2C1C1C=CCCC1 (stereo not shown),4.26
10,O=[N+]([O-])c1ccc(O)c(C=Nc2ccc3c(c2)OCCO3)c1,12.7
11,O=C(CC(=O)c1c(F)cccc1Cl)c1ccccc1O,17
12,COc1cc(C(=O)Oc2cc(C)cc(C)c2)cc(OC)c1OC,23
13,O=C(O)c1ccc(NC(=S)NC(=O)c2ccc(-c3ccccc3)cc2)cc1,14.8
14,CN(C)Cc1cc(CN(C)C)c(O)c(CCc2ccccc2)n1.Cl,7.81
15,Cc1cccc(N2CCN(C(=O)CSc3ccsc3[N+](=O)[O-])CC2C)c1 (stereo not shown),4.62
16,COC(=O)c1ccc2c(=O)n(Cc3ccc4c(c3)OCO4)c(SCC(=O)N3CCCC3)nc2c1,-10.9
17,COc1ccc(CNC(=O)C2CCC(=O)N(CCCN3CCCC3=O)C2)cc1 (stereo not shown),11.1
18,Cc1ccnc(NC(=O)Nc2ccc3c(c2)N(C)C(=O)CS3)c1,10.5
19,O=C(O)c1cc2ccccc2n1-c1ccccc1,8.47
20,CCC(NS(=O)(=O)c1ccc(C)cc1)C(=O)N1CCN(c2ccccn2)CC1 (stereo not shown),3.13
21,N#CC(C(=O)NC1CCCCC1)c1nc2ccccc2nc1N1CCN(c2ccccc2F)CC1 (stereo not shown),8.65
22,COc1cccc(C(=O)Nc2cc(=O)n(C)c(=O)n2C)c1,17.4

row,Structure (SMILES),"hERG current change (%, negative = inhibition) at 1uM [%]"
1,O=C(CC1C(=O)NCCN1C(=O)Nc1ccccc1)Nc1ccc(F)cc1 (stereo not shown),14.2
2,CCOc1ccc(-c2nonc2NC(=O)c2ccco2)cc1OCC,19.2
3,O=C(O)CCSc1nc2ccccc2c(=O)[nH]1,11.9
4,Cc1ccc(C(=O)Nc2ncc([N+](=O)[O-])s2)cc1,10.1
5,Cn1c(=O)oc2cc(S(=O)(=O)NCCN3CCN(c4ccccc4)CC3)ccc21,-0.148
6,COC(=O)c1ccc(S(=O)(=O)NCc2ccccc2)n1C,6.61
7,Cc1cc(OCC(=O)N2C[C@H]3C[C@@H](C2)c2cccc(=O)n2C3)c2c(C)c(C)c(=O)oc2c1,14.4
8,COc1cn(-c2ccccc2)nc1C(=O)OCC(=O)Nc1ccc(C)c(C)c1,12.1
9,Cc1c(N(C)C)nc2ccccc2c1N.O=C(O)C(=O)O,-8.8
10,Cc1nn(CCc2nn[nH]n2)c2nc(C(F)(F)F)cc(C(F)(F)F)c12,13.5
11,CC1(C)CC(=O)C2=C(C1)N(c1ccccc1)C(N)=C(C#N)C2c1ccccc1 (stereo not shown),6.52
12,CCN1C(=O)CC(C(=O)NC)SC1=Nc1cc(Cl)c(O)c(Cl)c1 (stereo not shown),14
13,COc1ccc(OC)c(S(=O)(=O)N2CCN(CC(O)COc3ccc(C#N)cc3)CC2)c1 (stereo not shown),-43.6
14,CCOC(=O)c1cnn(-c2ccccc2)c1-c1ccccc1,12.8
15,CCCN(CC(=O)Nc1ccccc1C)C(=O)Cc1cccs1,6.04
16,COc1cccc(/C=C/c2ccccn2)c1O,0.0669
17,CN(C)N1C(N)=C(C#N)C(c2ccc(F)cc2)C2=C1CC(C)(C)CC2=O (stereo not shown),8.86
18,CC(C)(C)NC(=O)COC(=O)c1snc(C(=O)NC2CCCCC2)c1N,4.4
19,CCOc1ccc(N2C(=O)C(CC(=O)Nc3ccc(F)cc3)N(Cc3ccccn3)C2=S)cc1 (stereo not shown),6.65
20,O=c1[nH][nH]c(-c2ccccc2)c1C=Nc1ccc(F)cc1F,7.62
21,CCOC(=O)c1cn2nc(Oc3ccc(NC(C)=O)cc3)ccc2n1,12.7
22,COC(=O)c1cc(NC(=O)/C=C/c2ccc3c(c2)OCO3)cc(C(=O)OC)c1,-14.4

row,Structure (SMILES),"hERG current change (%, negative = inhibition) at 1uM [%]"
1,COC(=O)c1c(C)[nH]c(C(=O)N2CCN(c3ccc(OC)cc3)CC2)c1C,6.49
2,CC(C)NC(=O)NC(=O)COc1ccc(Br)cc1Br,2.45
3,COc1ccc(-c2nc(C#N)c(NCC3CCCO3)o2)cc1 (stereo not shown),4.71
4,CC(C)C(=O)NCCc1c[nH]c2ccccc12,12.3
5,Cc1ccc(NC(=O)/C(CN(C)C)=N\O)cc1,5.44
6,COc1ccc(CN2CC(C(=O)NCCN3CCOCC3)CC2=O)cc1 (stereo not shown),4.44
7,NCCN1CCN(CC(=O)N2c3ccccc3C(=O)Nc3cccnc32)CC1,15.1
8,NNC(=O)c1[nH]c2ccc(Br)cc2c1-c1ccccc1,14.6
9,CSCCC(NC(=O)c1ccco1)C(=O)N1CC(C)OC(C)C1 (stereo not shown),5.26
10,COc1ccc(NC(=S)NCc2ccc3c(c2)cc(C)n3C)cc1,10.7
11,NC(=O)CSc1nc2ccccc2n1Cc1ccccc1,1.88
12,CC(C)CC(NC(=O)C(NC(=O)C1CCC(=O)N1C(=O)OCc1ccccc1)C(C)C)C(=O)N1CCCC1C(N)=O (stereo not shown),15.8
13,O=C(C(Cc1ccccc1)n1cccc1)N1CCN(c2cccc(Cl)c2)CC1 (stereo not shown),-6.42
14,Cc1c(C(=O)OCC(=O)NCc2ccco2)oc2ccccc12,10.1
15,Cc1ccc(S(=O)(=O)N2c3ccccc3NC(=O)C2CC(=O)Nc2ccccc2)cc1 (stereo not shown),7.13
16,Nc1ccc(C(=O)n2c3ccccc3c3ccccc32)cc1,7.66
17,Oc1oc(-c2cccc3ccccc23)nc1/C=N/c1nccs1,5.22
18,O=C(CSc1nnc(-c2cccnc2)n1-c1ccc(SC(F)F)cc1)N1CCCc2ccccc21,-1.92
19,COc1ccc(S(=O)(=O)N2CCN(Cc3ccc4c(c3)OCO4)CC2)c2ccccc12,10.3
20,O=C(CSc1nnc(CNC(=O)c2ccccc2F)o1)NC1CCCC1,17.7
21,Cc1ccc(S(=O)(=O)N(C)c2ccc(OCC(=O)Nc3cccc(-n4cnnn4)c3C)cc2)cc1,-3.97
22,COc1ccc(OC)c2[nH]c(=O)c(CCNS(=O)(=O)c3ccc(Cl)cc3)cc12,9.11

row,Structure (SMILES),"hERG current change (%, negative = inhibition) at 1uM [%]"
1,Cl.Fc1ccc(Nc2nc(N3CCOCC3)nc(N3CCOCC3)n2)cc1Cl,11
2,O=C(OCC(=O)N1CCC(c2ccccc2)=N1)c1ccc([N+](=O)[O-])s1,5.2
3,Cc1cc(N2CCCCC2)nc2c(C)cccc12,11.3
4,O=C(Nc1ccc(NC(=O)c2ccco2)c(Cl)c1)c1ccccc1,0.179
5,CCCNC(=S)N1CCC(n2cnc3ccccc32)CC1,-2.36
6,Br.Fc1cccc(CNCc2ccc3c(c2)OCO3)c1,7.01
7,CCCc1nc2c(=O)n(C)c(=O)[nH]c2n1C,5.31
8,CCC(C)N(C(=O)COc1ccccc1C#N)C1CCS(=O)(=O)C1 (stereo not shown),6.64
9,CCOc1ccc(NC(=O)CCNC(=O)c2ccco2)cc1,18
10,O=C(CSc1ccc(F)cc1)NCC1(N2CCOCC2)CCCCC1,1.4
11,O=C(CN(CC1CCCO1)C(=O)CNS(=O)(=O)c1ccc(F)cc1)NC1CCCCC1 (stereo not shown),4.21
12,COc1ccccc1CCNC(=O)CSc1nnc2ccc(-c3cccnc3)nn12,-8.93
13,O=C(CN1CCOCC1)NNC(=O)c1ccc([N+](=O)[O-])cc1,4.43
14,COc1ccccc1Nc1cc(C)nc2c(C)ccc([N+](=O)[O-])c12,10.9
15,CC(C)Oc1ccc(C(CCN)C2CCCCC2)cc1.O=C(O)C(=O)O (stereo not shown),11
16,Cc1ccc(C(=O)/C=C/Nc2ccc3c(c2)OCO3)cc1,11.8
17,CCOc1ccccc1N(CC(=O)NCCOC)C(=O)CCC(=O)Nc1ccccn1,6.25
18,Cc1cc2ncn(-c3ncnc4scc(-c5ccccc5)c34)c2cc1C,7.63
19,C=CCN(C(=O)Cn1c(C(=O)OC)cc2oc(C)cc21)c1ccccc1,1.04
20,CCCCCCn1c(O)c(C=Nc2ccccc2N2CCOCC2)c(=O)[nH]c1=S,12.5
21,Cc1ccccc1N(C(=O)CNC(=O)c1ccco1)C(C(=O)NC1CCCC1)c1ccncc1 (stereo not shown),8.55
22,COc1ccc(/C=N/NC(=O)c2ccc(CSc3nc(C)cc(C)n3)cc2)cc1O,2.4

# Reference: article PMC4336329 (PLoS ONE, 2015)
